{"source": "patent US20120271036A1", "about": "(UNIVERSITY OF ROCHESTER, published 2012)", "binders": {"B1": {"name": "GST alone (other)", "chain": "not shown", "notes": "also called glutathione-S-transferase"}}, "target": "EloB([…])/EloC([…])/Vif([…]) (human; HIV-1 (group M, subtype B))", "assay": "GST pull-down on glutathione resin, SDS-PAGE [panel D]", "data": [{"binder": "B1", "values": [{"measurement": "binding result", "result": "no binding"}]}]}
